# Reference: the supplement of paper PMC8728848
# Some of the results follow.
# B1: SSL (Salmo salar) (protein)
# chain: TGAKGAEEGVVPAETRNQCPTGWFQFGSRCFMFVETARSWPLAERHCVSLGANLASVHSSADDQFLQAIAGCKTGAFSTTWIGGFDAVQDRLWFWSDGSEFDYQNWAKGEPNNSGGREPCIVINWGDEYRWNDIKCGNSFPSVCSKRICEIQKN
# Columns and labels:
# Assay in all cases: glycan array binding signal (z-score within array); higher = stronger binding
# Settings in all cases: glycan notation: IUPAC condensed, linker removed
# [1] = target: Neu5Ac(a2-3)Gal(b1-4)GlcNAc
# Outline: (§1)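 Glycan array data were curated from 3228 arrays in the Consortium for Functional Glycomics database and kept only where the protein sequence was available. Glycan names were converted to IUPAC-condensed notation, and columns mapping to the same glycan were averaged. The binding signal is a within-array Z-score, averaged across arrays of the same protein sequence at different concentrations or buffers and across linkers. Negative Z-scores can be read as non-binding.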
# [2] = target: Neu5Ac(a2-3)Gal(b1-4)GlcNAc(b1-2)Man(a1-3)[GlcNAc(b1-2)Man(b1-4)GlcNAc(b1-2)Man(a1-6)]Man(b1-4)GlcNAc(b1-4)GlcNAc
# Outline: as §1
# [3] = target: Neu5Ac(a2-3)Gal(b1-4)GlcNAc(b1-2)Man(a1-3)[Neu5Ac(a2-6)Gal(b1-4)GlcNAc(b1-2)Man(a1-6)]Man(b1-4)GlcNAc(b1-4)GlcNAc
# Outline: as §1
# [4] = target: Neu5Ac(a2-3)Gal(b1-4)GlcNAc(b1-3)Gal(b1-3)GlcNAc
# Outline: as §1
# [5] = target: Neu5Ac(a2-3)Gal(b1-4)GlcNAc(b1-3)Gal(b1-4)GlcNAc
# Outline: as §1
# [6] = target: Neu5Ac(a2-3)Gal(b1-4)GlcNAc(b1-3)Gal(b1-4)GlcNAc(b1-3)Gal(b1-4)GlcNAc
# Outline: as §1
# [7] = target: Neu5Ac(a2-3)Gal(b1-4)GlcNAc(b1-3)Gal(b1-4)[Fuc(a1-3)]GlcNAc
# Outline: as §1
# [8] = target: Neu5Ac(a2-3)Gal(b1-4)GlcNAc(b1-3)GalNAc
# Outline: as §1
# [9] = target: Neu5Ac(a2-3)Gal(b1-4)GlcNAc(b1-6)[Gal(b1-3)]GalNAc
# Outline: as §1
# [10] = target: Neu5Ac(a2-3)Gal(b1-4)GlcNAc(b1-6)[Neu5Ac(a2-3)Gal(b1-3)]GalNAc
# Outline: as §1
# [11] = target: Neu5Ac(a2-3)Gal(b1-4)GlcNAc6S
# Outline: as §1
# [12] = target: Neu5Ac(a2-3)Gal(b1-4)[Fuc(a1-3)]GlcNAc
# Outline: as §1
# [13] = target: Neu5Ac(a2-3)Gal(b1-4)[Fuc(a1-3)]GlcNAc(b1-3)Gal
# Outline: as §1
# [14] = target: Neu5Ac(a2-3)Gal(b1-4)[Fuc(a1-3)]GlcNAc(b1-3)Gal(b1-4)GlcNAc
# Outline: as §1
# [15] = target: Neu5Ac(a2-3)Gal(b1-4)[Fuc(a1-3)]GlcNAc(b1-3)Gal(b1-4)[Fuc(a1-3)]GlcNAc(b1-3)Gal(b1-4)[Fuc(a1-3)]GlcNAc
# Outline: as §1
# [16] = target: Neu5Ac(a2-3)Gal(b1-4)[Fuc(a1-3)]GlcNAc(b1-3)GalNAc
# Outline: as §1
# [17] = target: Neu5Ac(a2-3)Gal(b1-4)[Fuc(a1-3)]GlcNAc(b1-6)[Gal(b1-3)]GalNAc
# Outline: as §1
# [18] = target: Neu5Ac(a2-3)Gal(b1-4)[Fuc(a1-3)]GlcNAc(b1-6)[Neu5Ac(a2-3)Gal(b1-3)]GalNAc
# Outline: as §1
# [19] = target: Neu5Ac(a2-3)Gal(b1-4)[Fuc(a1-3)]GlcNAc6S
# Outline: as §1
# [20] = target: Neu5Ac(a2-3)Gal6S(b1-4)GlcNAc
# Outline: as §1
# [21] = target: Neu5Ac(a2-3)Gal6S(b1-4)[Fuc(a1-3)]GlcNAc
# Outline: as §1
# [22] = target: Neu5Ac(a2-3)GalNAc
# Outline: as §1
# [23] = target: Neu5Ac(a2-3)GalNAc(b1-4)GlcNAc
# Outline: as §1
# [24] = target: Neu5Ac(a2-3)[GalNAc(b1-4)]Gal(b1-4)Glc
# Outline: as §1
# [25] = target: Neu5Ac(a2-3)[GalNAc(b1-4)]Gal(b1-4)GlcNAc
# Outline: as §1
# [26] = target: Neu5Ac(a2-3)[GalNAc(b1-4)]Gal(b1-4)GlcNAc(b1-3)GalNAc
# Outline: as §1
# [27] = target: Neu5Ac(a2-3)[Neu5Ac(a2-6)]GalNAc
# Outline: as §1
# [28] = target: Neu5Ac(a2-6)Gal
# Outline: as §1
# [29] = target: Neu5Ac(a2-6)Gal(b1-4)Glc
# Outline: as §1
# [30] = target: Neu5Ac(a2-6)Gal(b1-4)GlcNAc
# Outline: as §1
# [31] = target: Neu5Ac(a2-6)Gal(b1-4)GlcNAc(b1-2)Man(a1-3)Man(b1-4)GlcNAc(b1-4)GlcNAc
# Outline: as §1
# [32] = target: Neu5Ac(a2-6)Gal(b1-4)GlcNAc(b1-2)Man(a1-3)[Gal(b1-4)GlcNAc(b1-2)Man(a1-6)]Man(b1-4)GlcNAc(b1-4)GlcNAc
# Outline: as §1
# [33] = target: Neu5Ac(a2-6)Gal(b1-4)GlcNAc(b1-2)Man(a1-3)[GlcNAc(b1-2)Man(a1-6)]Man(b1-4)GlcNAc(b1-4)GlcNAc
# Outline: as §1
# [34] = target: Neu5Ac(a2-6)Gal(b1-4)GlcNAc(b1-2)Man(a1-3)[GlcNAc(b1-2)Man(b1-4)GlcNAc(b1-2)Man(a1-6)]Man(b1-4)GlcNAc(b1-4)GlcNAc
# Outline: as §1
# [35] = target: Neu5Ac(a2-6)Gal(b1-4)GlcNAc(b1-2)Man(a1-3)[Man(a1-6)]Man(b1-4)GlcNAc(b1-4)GlcNAc
# Outline: as §1
binder,measurement,setting,value
B1,glycan array binding signal (z-score),[1],-0.177
same,glycan array binding signal (z-score),[2],-0.182
same,glycan array binding signal (z-score),[3],-0.175
same,glycan array binding signal (z-score),[4],-0.185
same,glycan array binding signal (z-score),[5],-0.187
same,glycan array binding signal (z-score),[6],-0.184
same,glycan array binding signal (z-score),[7],-0.179
same,glycan array binding signal (z-score),[8],-0.168
same,glycan array binding signal (z-score),[9],-0.183
same,glycan array binding signal (z-score),[10],-0.17
same,glycan array binding signal (z-score),[11],-0.181
same,glycan array binding signal (z-score),[12],-0.177
same,glycan array binding signal (z-score),[13],-0.182
same,glycan array binding signal (z-score),[14],-0.153
same,glycan array binding signal (z-score),[15],-0.126
same,glycan array binding signal (z-score),[16],-0.156
same,glycan array binding signal (z-score),[17],-0.155
same,glycan array binding signal (z-score),[18],-0.135
same,glycan array binding signal (z-score),[19],-0.184
same,glycan array binding signal (z-score),[20],-0.179
same,glycan array binding signal (z-score),[21],-0.176
same,glycan array binding signal (z-score),[22],-0.17
same,glycan array binding signal (z-score),[23],-0.178
same,glycan array binding signal (z-score),[24],-0.172
same,glycan array binding signal (z-score),[25],-0.172
same,glycan array binding signal (z-score),[26],-0.119
same,glycan array binding signal (z-score),[27],-0.182
same,glycan array binding signal (z-score),[28],-0.144
same,glycan array binding signal (z-score),[29],-0.158
same,glycan array binding signal (z-score),[30],-0.172
same,glycan array binding signal (z-score),[31],-0.178
same,glycan array binding signal (z-score),[32],-0.177
same,glycan array binding signal (z-score),[33],-0.18
same,glycan array binding signal (z-score),[34],-0.182
same,glycan array binding signal (z-score),[35],-0.181
